# Data published in ChEMBL document CHEMBL1201862, “PubChem BioAssay data set” (2004).
#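 Results reflect a 48-hour exposure of cells in 96-well plates to compound at five concentrations. Here, GI50 denotes the concentration required for 50% inhibition of growth.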 Active and inactive are the calls of the source. Rule as the data show it: active = GI50 up to about 1.1 µM and inactive = higher.
# Tested on: NCI-H322M
# Experiment: DTP human tumour cell line panel, 48 h
row,Structure (SMILES),GI50
1,COC(=O)c1sc(C(=O)OC)c2c1C[S+]([O-])C2,inactive: > 100 µM
2,Nc1nc(Cl)c(N)c(NCC2(CO)CC(CCCc3ccccc3)C2)n1 (centres undefined),inactive: > 49.3 µM
3,CN(C)C(=S)/N=c1\ss/c(=N\C(=S)N(C)C)n1-c1ccc2c(c1)OCO2,inactive: > 100 µM
4,O=C(O)CCC(O)=C1S(=O)(=O)OCCOS1(=O)=O,inactive: > 100 µM
5,Nc1ccc2c(c1)Cc1ccccc1-2,inactive: > 100 µM
6,COC1C(OC(=O)/C=C/C=C/C=C/C=C/C(=O)O)CCC2(CO2)C1C1(C)OC1CC=C(C)C (centres undefined),inactive: 54 µM
7,C=CC[C@H]1[C@H](O[Si](C)(C)C(C)(C)C)C=CC(=O)[C@@H]1CC(=O)N(Cc1ccccc1)Cc1ccccc1,inactive: 34 µM
8,COC(=O)C[C@H]1CCC2(OCCO2)[C@]1(C)C(=O)OC,inactive: > 100 µM
9,O1C2C1C1OC1C1OC1C1OC21 (centres undefined),inactive: > 100 µM
10,O=C(CC1(O)C(=O)Nc2c(Cl)cc(Cl)cc21)c1cccc([N+](=O)[O-])c1 (centres undefined),inactive: 57.9 µM
11,Cc1cc(C)nc(NS(=O)(=O)c2ccc(NC(=O)c3cc([N+](=O)[O-])cc([N+](=O)[O-])c3)cc2)n1,inactive: 81.3 µM
12,Cn1c(=O)oc2cc(C(=O)CN3CCN(Cc4ccc5c(c4)OCO5)CC3)c(Cl)cc21,inactive: > 100 µM
13,O=C1Nc2ccccc2NC1C1OC(c2ccccc2)=CC1=O (centres undefined),inactive: > 100 µM
14,c1ccc2c3c([nH]c2c1)C1(CCCCC1)c1c([nH]c2ccccc12)C31CCCCC1,inactive: 25.1 µM
15,COc1cc([C@H]2c3cc(O)c(OC)cc3C[C@]3(O)[C@@H]2CO[C@@H]3O)ccc1O,inactive: > 100 µM
16,CC1(C)CC[C@]2(C(=O)O)CC[C@]3(C)C(=CC[C@@H]4[C@@]5(C)C[C@H](O)[C@H](O)[C@@](C)(C(=O)O)[C@@H]5CC[C@]43C)[C@@H]2C1,inactive: > 100 µM
17,O=S(=O)(O)c1cc(S(=O)(=O)O)c2c(/N=N/c3ccc(S(=O)(=O)O)c4ccccc34)c(O)ccc2c1,inactive: > 100 µM

row,Structure (SMILES),GI50
1,CC(=O)Nc1ccc(/N=C2\C(c3ccccc3)=C(SC3=C(c4ccccc4)/C(=N\c4ccc(NC(C)=O)cc4)c4ccccc43)c3ccccc32)cc1,inactive: 57.9 µM
2,CCCCCCCCC/C=C1/CC(CO)(COC(=O)C2CCCCC2)OC1=O (centres undefined),inactive: > 100 µM
3,CC(C)CCNc1ncnc2[nH]ncc12,inactive: > 100 µM
4,O=c1c(Cc2c(O)ccc3ccccc23)nnc2sc(-c3nn4c(=O)c(Cc5c(O)ccc6ccccc56)nnc4s3)nn12,inactive: > 100 µM
5,COc1cccc(CCn2c(N)c(-c3cc(Cl)cc(Cl)c3)c3ccc([N+](=O)[O-])cc3c2=O)c1,inactive: 3.74 µM
6,CCOC(=O)c1cc2cc(Cc3ccc4[nH]c(C(=O)OCC)cc4c3)ccc2[nH]1,inactive: 45.9 µM
7,Nc1ccc(C(=O)O)cc1 [AMINOBENZOIC ACID],inactive: > 100 µM
8,O=c1c2ccccc2c2nc3ccccc3nc2n1C1CCCCC1,inactive: > 100 µM
9,CC(C)=CCNc1nc(Cl)nc2[nH]cnc12,inactive: 29 µM
10,CCOC(=O)C1(C#N)C(c2ccccc2)CC(O)(c2ccc(OC)cc2)C(C(=O)c2ccc(OC)cc2)C1c1ccccc1 (centres undefined),inactive: > 100 µM
11,NC(CCSCC(F)(F)F)C(=O)O (centres undefined),inactive: > 100 µM
12,COc1cccc(/C=C/c2ccc(S(N)(=O)=O)cc2)c1,inactive: > 100 µM
13,CN(C)CCNC(=O)c1cc([N+](=O)[O-])cn1C,inactive: > 100 µM
14,C#CCN(N=O)C(=O)NCCCC(NC(C)=O)C(=O)NCc1ccccc1 (centres undefined),inactive: > 100 µM
15,CC1(C)[C@@H](Cn2cnc3c(Cl)nc(N)nc32)CC[C@@]1(C)CO,inactive: 44.4 µM
16,CN1C(c2ccccc2)CC(=O)C(N)C1c1ccccc1 (centres undefined),inactive: 44.7 µM
17,COc1cc(/C=C2\C[C@H]3[C@@H]4CCc5cc(OCCN6CCCC6)ccc5[C@H]4CC[C@]3(C)C2=O)cc(OC)c1OC,inactive: 2.87 µM
